± gives the standard deviation of the averaged measurements. The list shows a part of the results.

This experiment deals with PfAP2-EXP AP2 domain (GST-tagged). Put plainly: gcPBM binding intensity (ln(normalized median fluorescence intensity)); higher = stronger DNA binding. Put shortly: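 After 1 h on an Agilent 4 × 180k array of primer-extended double-stranded 36-bp intergenic genomic probes and negative controls, bound GST-tagged P. falciparum DNA-binding domains were detected with Alexa488 anti-GST antibody and scanned at 488 nm. The domains had been expressed in E. coli, and binding took place in 1× PBS with 1% milk, 0.2 mg/ml BSA, 0.5% salmon testes DNA and 0.03% Triton X-100. Binding intensity is the highest Masliner-normalised natural-log median intensity across replicate spots of either probe orientation.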
Regarding “ATATATTATATATGCGCACACACGAATTTTTTTTTT [CACACA_site2393]”, the “gcPBM binding intensity (ln)” value came out at 8.97 ± 0.36.

On to “TATATATATATAATATGTACATATATACATGCCTTG [XGTACX_site2791]”, for which the “gcPBM binding intensity (ln)” value came out at 9.78 ± 0.39.

For the sequence “TACACTAATGACAGTTGTACTTTTATTCGATAGAAT [XGTACX_site738]”, the “gcPBM binding intensity (ln)” value came to 8.4 ± 0.33.

Regarding “ACTTTTTTTTTGTGTGTGCACTCGATTATATACATA [GTGCAC_site9846]”, the “gcPBM binding intensity (ln)” value was found to be 9.38 ± 0.26.

With “TCGAAAATGACGAATGGTACAGTATGTATAAAAATA [XGTACX_site1258]”, the “gcPBM binding intensity (ln)” value turned out to be 8.66 ± 0.4.

For the sequence “TCAAAATTGCTTTGTTGTACTAATAAAATTTATTAC [XGTACX_site1121]”, the “gcPBM binding intensity (ln)” value was 8.57 ± 0.37.

For “TATATATACATACGTACACACAAATATTAAAATATA [CACACA_site1951]”, the “gcPBM binding intensity (ln)” value came out at 8.6 ± 0.28.

For “TATCTGTAAACATATTCACACACATAAATTCGCATA [CACACA_site8557]”, the “gcPBM binding intensity (ln)” value was 8.63 ± 0.52.

For “AAAAAAAAATGTCATGGTACACAATTTTTTCTTTTT [XGTACX_site4505]”, the “gcPBM binding intensity (ln)” value was determined as 8.14 ± 0.4.

For the sequence “TAAAGTAAAACAAGGTAAGGTTTTTCTTTTTCTTTT [CACACA_negctrl_site1271]”, the “gcPBM binding intensity (ln)” value came out at 8 ± 0.49.

On to “TAGATTATTTTATTTAGTACATAAAAAAGTAAGACC [XGTACX_site7889]”, for which the “gcPBM binding intensity (ln)” value is 8.71 ± 0.2.

For AATAAATTATGAACGGTGCAGGAAAAATTGTAACAT, the “gcPBM binding intensity (ln)” value was determined as 9.29 ± 0.3.

With “TGAAGTGCAAAATACTGTACGTAATGTGCTTGTTAC [XGTACX_site4512]”, the “gcPBM binding intensity (ln)” value stood at 8.75 ± 0.23.

Take “CAAAAAAACAAACACACACACACACCGATATATATA [CACACA_site9218]”: the “gcPBM binding intensity (ln)” value is 8.74 ± 0.48.

As to “AAACATAAGGGACACACACACATATATATATATATA [CACACA_site5920]”, the “gcPBM binding intensity (ln)” value stood at 10.3 ± 0.16.

For the sequence “CAATCTTTTACGAATACACACACATAAAGAAAAAAA [CACACA_site8367]”, the “gcPBM binding intensity (ln)” value amounted to 8.71 ± 0.49.

In the case of “AATTTTTTATATGTCACACATTTGTTATTATTATTA [CACACA_site4197]”, the “gcPBM binding intensity (ln)” value was 8.65 ± 0.4.

As for “TTAAATAAATAAAAATGTACATGCATATATAAATAT [XGTACX_site8908]”, the “gcPBM binding intensity (ln)” value is 8.93 ± 0.33.

As to “ACATATAGAAGTATCTATAAACAGTGATAGCATTTT [CACACA_negctrl_site1122]”, the “gcPBM binding intensity (ln)” value was found to be 8.41 ± 0.29.

As for “AAAAAGAATAAATAAATATAAATAAATAAATATATA [GTGCAC_negctrl_site336]”, the “gcPBM binding intensity (ln)” value worked out at 8.27 ± 0.26.

With “AAAACACAAAAAAAATGTACACATATATATATATAT [XGTACX_site8509]”, the “gcPBM binding intensity (ln)” value came to 10 ± 0.38.

For “TAACTATATTTTTACTGTACAAAAAAATTAAATAAT [XGTACX_site1765]”, the “gcPBM binding intensity (ln)” value amounted to 8.43 ± 0.38.

In the case of “ATATTAATTCTACATTGTACACATGAAAAAATATAA [XGTACX_site8759]”, the “gcPBM binding intensity (ln)” value came to 8.51 ± 0.33.

Turning to “AAATTAAATAAATTTACACACTAAAAATTACAGATA [CACACA_site4722]”, the “gcPBM binding intensity (ln)” value is 8.38 ± 0.47.

For “CATTATGTCGTAAATACACACATACAGATACATACA [CACACA_site4880]”, the “gcPBM binding intensity (ln)” value was 8.56 ± 0.34.

For “AAAAAACACCCACATACACACAAAAATGTTATAAAT [CACACA_site81]”, the “gcPBM binding intensity (ln)” value is 8.77 ± 0.8.

For the sequence “TTTTTATTTGGTTGTGTACACATATATATATATATA [CACACA_site5844]”, the “gcPBM binding intensity (ln)” value amounted to 10.2 ± 0.3.

As for “GTTATATATAATAATTGTACAAAATTAAATATAACT [XGTACX_site4189]”, the “gcPBM binding intensity (ln)” value was 8.48 ± 0.44.

As for “CTAAGAAAAAATAAAGCACACAAATATTTTAAAAAC [CACACA_site9094]”, the “gcPBM binding intensity (ln)” value was found to be 8.8 ± 0.4.

Take “AAAATATGTAGACACATACACACATATATATATATA [CACACA_site1221]”: the “gcPBM binding intensity (ln)” value was found to be 10.1 ± 0.26.

Turning to “TTTTCTTTTTCCAAAAGTACGTAATTTAAACATTTT [XGTACX_site2066]”, the “gcPBM binding intensity (ln)” value is 8.48 ± 0.37.

“TATATGTATGTTTGTTTGTTTGTATTTTTTAAGGTA [XGTACX_negctrl_site619]”: the “gcPBM binding intensity (ln)” value turned out to be 8.72 ± 0.19.

Regarding “TTTTTTTTTTCAAATGCATGCAAAAAAAAAAAAATA [TGCATGCA_site945]”, the “gcPBM binding intensity (ln)” value was determined as 9.26 ± 0.28.

As for “ATAATTATGAAGCATACATGCATGTCCTGGCTTAAA [TGCATGCA_site491]”, the “gcPBM binding intensity (ln)” value was 9.15 ± 0.3.

“AAATTAGAAATACCTACACACTTATCAAAATAAATT [CACACA_site7132]”: the “gcPBM binding intensity (ln)” value amounted to 8.23 ± 0.49.

As for “TTATAATATGGATACACACACATATATAAATATATA [CACACA_site5314]”, the “gcPBM binding intensity (ln)” value was found to be 8.36 ± 0.4.

With “AAAAAATAAATAAATACACACAAATCTATATTTATA [CACACA_site7243]”, the “gcPBM binding intensity (ln)” value worked out at 8.12 ± 0.57.

For the sequence “ATCTAAATTTTTCCATGTACATATACTTTTATGCAT [XGTACX_site2683]”, the “gcPBM binding intensity (ln)” value was found to be 9.29 ± 0.53.

Take “GCAAGGAAATAATTGATAATATATATATATATATAT [GTGCAC_negctrl_site400]”: the “gcPBM binding intensity (ln)” value is 10.1 ± 0.28.

Take “GAGTAAATAAATAAATGTACATATATATATATTATC [XGTACX_site8466]”: the “gcPBM binding intensity (ln)” value came out at 8.56 ± 0.41.

As to “TATAATAAATATTAACGTACTCATATATATATATAT [XGTACX_site3871]”, the “gcPBM binding intensity (ln)” value was determined as 10.1 ± 0.52.

Take “AATATATATATATATATATATTTTTGTTAGAATATG [XGTACX_negctrl_site58]”: the “gcPBM binding intensity (ln)” value was 8.45 ± 0.12.

On to “ATACATAAATATTGATGTACTCATTTAATATATTAT [XGTACX_site3992]”, for which the “gcPBM binding intensity (ln)” value amounted to 8.38 ± 0.26.

On to “CTAAAATACGGACACACACACACATATATATATATA [CACACA_site6138]”, for which the “gcPBM binding intensity (ln)” value is 10.3 ± 0.15.

(Values after the supplement of paper PMC11417369.)
